Experimental findings from the supplement of paper PMC4723716 are described below.

In this assay the test system is Plasmodium falciparum NF54 stage V gametocytes. Kind of assay: viability index relative to DMSO control (fraction); higher = less gametocyte killing. Conditions: 2.5 µM, incubation time: 72 h. The gist of the method:
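Gametocytes (P. falciparum NF54, stage V) were treated with compound at 2.5 µM for 72 hr at 37°C in low oxygen, in serum-free medium at 0.75% gametocytemia and 1.25% hematocrit. Counts of 20–70 µm2 red particles, taken from one field per well after MitoTracker Red CMXRos with saponin, were divided by the plate mean of solvent-only wells. This ratio is the viability index.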

The mark [1] stands for this setting: library set: Broad Institute DOS.

± gives the uncertainty stated by the source. Over roughly 9,900 compounds, “viability index relative to DMSO control” has its median near 1; the lowest 2% begin near 0.85. The list shows a part of the results.

Under setting [1], `O=C(C1CCC1)N1C[C@@H]2[C@H](c3ccccc31)[C@@H](CO)N2C(=O)Nc1cccc(F)c1` displayed a viability index of 1 ± 0.058. With `O=C(C[C@H]1C=C[C@H](NC(=O)c2ccc3c(c2)OCO3)[C@H](CO)O1)NC1Cc2ccccc2C1`, the viability index under setting [1] was 1 ± 0.1.

On to `Cc1noc(C)c1NC(=O)N(C)C[C@@H]1OCc2ccccc2-c2c(n(C)c3ccccc23)C(=O)N([C@H](C)CO)C[C@H]1C`, for which the viability index under setting [1] turned out to be 1.03 ± 0.087.

Under setting [1], `COc1ccc(S(=O)(=O)N2C[C@H](O)COC[C@H]3O[C@@H](CC(=O)N[C@H]4CCN(Cc5ccccc5)C4)CC[C@@H]32)cc1` yielded a viability index of 1.02 ± 0.037.

Compound `CO[C@H]1CN(C)C(=O)c2cc(NC(=O)c3nc4ccccc4s3)ccc2OC[C@H](C)NC[C@H]1C` registered a viability index under setting [1] of 1.12 ± 0.012. Same read-out and setting: with `O=C(CC1CC1)N1CC[C@@H]2[C@H](CO)Nc3ccc(-c4ccc(F)cc4)cc3[C@@H]21` the figure was 1.11 ± 0.022; with `C[C@H](CO)N1C[C@H](C)[C@@H](CN(C)C)Oc2ccc(NS(C)(=O)=O)cc2C1=O`, 1.04 ± 0.022. Under setting [1], `Cc1nn(C)cc1NC(=O)C[C@H]1CC[C@H]2[C@@H](COc3ccc(NC(=O)C4CCOCC4)cc3C(=O)N2C)O1` returned a viability index of 1.07 ± 0.015.

The compound `C[C@@H]1CN([C@@H](C)CO)C(=O)c2cccc(NC(=O)c3nc4ccccc4s3)c2O[C@H]1CN(C)C(=O)Nc1ccc(C(F)(F)F)cc1` had a viability index (library set: Broad Institute Blood Stage) of 0.811 ± 0.058. For the compound `O=C(C[C@@H]1CC[C@@H]2NC[C@H](O)COC[C@H]2O1)NCCN1CCCCC1`, the viability index under setting [1] is 1.05 ± 0.019.

Regarding `O=C(O)C[C@@H]1C[C@@H]2c3cc(NC(=O)Nc4ccc(C(F)(F)F)cc4)ccc3O[C@@H]2[C@H](CO)O1`, the viability index under setting [1] stood at 1.11 ± 0.07. Regarding `COC(=O)C[C@@H]1C[C@H]2c3cc(NC(=O)c4ccc5c(c4)OCO5)ccc3O[C@H]2[C@H](CO)O1`, the viability index under setting [1] is 1.01 ± 0.12. Under setting [1], `N#C[C@@H]1[C@H](c2ccc(C#Cc3cccc(F)c3)cc2)[C@H](CO)N1C(=O)C1CCOCC1` yielded a viability index of 1.07 ± 0.058. The same measure, in the same setting: with `CCCNC(=O)N1C[C@H]2[C@@H](c3ccccc31)[C@@H](CO)N2C(=O)Nc1ccccc1F` the figure was 1.04 ± 0.031. Compound `CCC(=O)N[C@@H]1CC[C@@H](CC(=O)NCc2ccccc2F)O[C@@H]1CO` displayed a viability index under setting [1] of 1.09 ± 0.16.

`C[C@@H]1CCCCO[C@H](CN(C)CC2CCCCC2)[C@@H](C)CN([C@H](C)CO)C(=O)c2cc(NS(C)(=O)=O)ccc2O1` yielded a viability index under setting [1] of 1.11 ± 0.057.

Regarding `CC(C)NC(=O)N1[C@H](CO)[C@@H](c2ccccc2)[C@H]1CN(C)C(=O)c1cccnc1`, under setting [1], the viability index stood at 1.03 ± 0.048.

As for `C[C@@H]1CN([C@@H](C)CO)C(=O)CCCn2nncc2CO[C@@H]1CN(C)C(=O)c1cc(-c2ccccc2)on1`, the viability index under setting [1] was found to be 0.975 ± 0.05. With `COC(=O)C[C@H]1C[C@H]2c3cc(NC(=O)c4ccc5c(c4)OCO5)ccc3O[C@H]2[C@@H](CO)O1`, the viability index under setting [1] is 1.041 ± 0.005. `CN1C(=O)c2cc(NC(=O)c3cscn3)ccc2OC[C@H]2O[C@H](CC(=O)N3CCOCC3)CC[C@H]21`: the viability index under setting [1] was determined as 1.15 ± 0.13.
